According to patent US5773413A, “Method of combating mammalian neoplasias, and lytic peptides therefor” (Demeter Biotechnologies, Ltd., priority 1995, dated 1998):
Not every detail of the peptide structures is certain; ends, links or a residue may be inferred. Where a SMILES comes first, the peptide text is derived from it.

Tests used:
[1] = system: KBATCC nasopharyngeal carcinoma; test: MTT ID50 assay; type: cell-based, human; settings: quadruplicate; values listed as 10 are actually greater than 10
B16F1 mouse melanoma = test: MTT ID50 assay; type: cell-based; settings: quadruplicate; values listed as 10 are actually greater than 10
[2] = system: MG-63, T47D, MDA231, BT474, B16F1, KBATCC; test: MTT ID50 assay, average over the six cell lines; type: cell-based; settings: average of the six cell lines, values greater than 10 counted as 10.00
[3] = system: BT474 hormone sensitive breast tumor; test: MTT ID50 assay; type: cell-based, human; settings: quadruplicate; values listed as 10 are actually greater than 10
[4] = system: T47D hormone sensitive breast tumor; test: MTT ID50 assay; type: cell-based, human; settings: quadruplicate; values listed as 10 are actually greater than 10
[5] = system: MG-63 chemotherapy resistant osteosarcoma; test: MTT ID50 assay; type: cell-based, human; settings: quadruplicate; values listed as 10 are actually greater than 10
[6] = system: MDA-MB231 hormone insensitive breast tumor; test: MTT ID50 assay; type: cell-based, human; settings: quadruplicate; values listed as 10 are actually greater than 10

CC(C)[C@H](NC(=O)[C@H](C)NC(=O)[C@@H](NC(=O)[C@H](C)NC(=O)[C@@H](NC(=O)[C@H](CCCCN)NC(=O)[C@H](C)NC(=O)[C@@H](NC(=O)[C@H](CCCCN)NC(=O)[C@H](CCCCN)NC(=O)[C@H](C)NC(=O)[C@@H](NC(=O)[C@H](CCCCN)NC(=O)[C@H](CCCCN)NC(=O)[C@@H](NC(=O)[C@H](CCCCN)NC(=O)[C@H](CCCCN)NC(=O)[C@H](C)NC(=O)[C@@H](NC(=O)[C@H](CCCCN)NC(=O)[C@H](CCCCN)NC(=O)[C@@H](NC(=O)[C@@H](N)Cc1ccccc1)C(C)C)C(C)C)C(C)C)C(C)C)C(C)C)C(C)C)C(C)C)C(=O)O [Peptide 4] (H-FVKKVAKKVKKVAKKVAKVAVAV-OH)
MTT ID50 KBATCC [1]: 5.60 µM
MTT ID50 B16F1 (B16F1 mouse melanoma): 5.80 µM
MTT ID50 Average [2]: 7.30 µM
MTT ID50 BT474 [3]: 7.50 µM
MTT ID50 T47D [4]: 4.90 µM
MTT ID50 MG-63 [5]: > 10.00 µM

CC(C)[C@H](NC(=O)[C@H](C)NC(=O)[C@H](CCCCN)NC(=O)[C@H](CCCCN)NC(=O)[C@@H](NC(=O)[C@H](C)NC(=O)[C@H](CCCCN)NC(=O)[C@H](CCCCN)NC(=O)[C@@H](NC(=O)[C@H](CCCCN)NC(=O)[C@H](CCCCN)NC(=O)[C@@H](NC(=O)[C@H](C)NC(=O)[C@H](CCCCN)NC(=O)[C@H](CCCCN)NC(=O)[C@@H](NC(=O)[C@H](C)NC(=O)[C@H](CCCCN)NC(=O)[C@@H](NC(=O)[C@H](C)NC(=O)[C@@H](NC(=O)[C@H](C)NC(=O)[C@@H](N)Cc1ccccc1)C(C)C)C(C)C)C(C)C)C(C)C)C(C)C)C(C)C)C(=O)O [Peptide 2] (H-FAVAVKAVKKAVKKVKKAVKKAV-OH)
MTT ID50 KBATCC [1]: 8.40 µM
MTT ID50 B16F1 (B16F1 mouse melanoma): 5.80 µM
MTT ID50 MDA231 [6]: > 10.00 µM
MTT ID50 Average [2]: 8.37 µM
MTT ID50 BT474 [3]: > 10.00 µM
MTT ID50 T47D [4]: 6.00 µM
MTT ID50 MG-63 [5]: > 10.00 µM

CC[C@H](C)[C@H](NC(=O)[C@H](C)NC(=O)[C@H](CCCNC(=N)N)NC(=O)[C@H](CC(C)C)NC(=O)CNC(=O)[C@@H](NC(=O)[C@H](C)NC(=O)[C@@H](N)Cc1ccccc1)C(C)C)C(=O)N[C@@H](CCCCN)C(=O)N[C@@H](CCCNC(=N)N)C(=O)N[C@@H](C)C(=O)N[C@@H](CC(C)C)C(=O)N[C@@H](CCCCN)C(=O)N[C@@H](CCCCN)C(=O)N[C@@H](CC(C)C)C(=O)N[C@@H](CCCNC(=N)N)C(=O)N[C@@H](CCCNC(=N)N)C(=O)NCC(=O)N[C@H](C(=O)N[C@@H](CCCNC(=N)N)C(=O)N[C@@H](CCCCN)C(=O)N[C@H](C(=O)N[C@@H](C)C(=O)N[C@@H](CCCCN)C(=O)N[C@@H](CCCNC(=N)N)C(=O)N[C@@H](CCCCN)C(=O)N[C@@H](CCCNC(=N)N)C(=O)O)C(C)C)C(C)C [Peptide 11] (H-FAVGLRAIKRALKKLRRGVRKVAKRKR-OH)
MTT ID50 KBATCC [1]: 8.90 µM
MTT ID50 B16F1 (B16F1 mouse melanoma): > 10.00 µM
MTT ID50 MDA231 [6]: > 10.00 µM
MTT ID50 Average [2]: 9.82 µM
MTT ID50 BT474 [3]: > 10.00 µM
MTT ID50 T47D [4]: > 10.00 µM
MTT ID50 MG-63 [5]: > 10.00 µM

CC(C)[C@H](NC(=O)[C@H](C)NC(=O)[C@@H](NC(=O)[C@H](C)NC(=O)[C@@H](NC(=O)[C@H](CCCCN)NC(=O)[C@H](C)NC(=O)[C@@H](NC(=O)[C@H](CCCCN)NC(=O)[C@H](CCCCN)NC(=O)[C@H](C)NC(=O)[C@@H](NC(=O)[C@H](CCCCN)NC(=O)[C@H](CCCCN)NC(=O)[C@@H](NC(=O)[C@H](CCCCN)NC(=O)[C@H](CCCCN)NC(=O)[C@H](C)NC(=O)[C@@H](NC(=O)[C@H](CCCCN)NC(=O)[C@H](CCCCN)NC(=O)[C@@H](NC(=O)[C@H](Cc1ccccc1)NC(=O)[C@H](CCCCN)NC(=O)[C@H](CCCCN)NC(=O)[C@H](CCCCN)NC(=O)[C@@H](N)CCCCN)C(C)C)C(C)C)C(C)C)C(C)C)C(C)C)C(C)C)C(C)C)C(=O)O [Peptide 3] (H-KKKKFVKKVAKKVKKVAKKVAKVAVAV-OH)
MTT ID50 KBATCC [1]: 6.50 µM
MTT ID50 B16F1 (B16F1 mouse melanoma): 6.00 µM
MTT ID50 MDA231 [6]: > 10.00 µM
MTT ID50 Average [2]: 7.37 µM
MTT ID50 BT474 [3]: 7.40 µM
MTT ID50 T47D [4]: 4.30 µM
MTT ID50 MG-63 [5]: > 10.00 µM

CC(C)[C@H](NC(=O)[C@H](CCCCN)NC(=O)[C@H](CCCCN)NC(=O)[C@H](C)NC(=O)[C@@H](NC(=O)[C@H](CCCCN)NC(=O)[C@H](CCCCN)NC(=O)[C@H](C)NC(=O)[C@@H](NC(=O)[C@H](CCCCN)NC(=O)[C@H](C)NC(=O)[C@@H](NC(=O)[C@H](CCCCN)NC(=O)[C@H](CCCCN)NC(=O)[C@H](C)NC(=O)[C@@H](NC(=O)[C@H](CCCCN)NC(=O)[C@H](C)NC(=O)[C@@H](NC(=O)[C@H](CCCCN)NC(=O)[C@H](CCCCN)NC(=O)[C@@H](NC(=O)[C@@H](N)Cc1ccccc1)C(C)C)C(C)C)C(C)C)C(C)C)C(C)C)C(C)C)C(=O)O [Peptide 6] (H-FVKKVAKVAKKVAKVAKKVAKKV-OH)
MTT ID50 KBATCC [1]: > 10.00 µM
MTT ID50 B16F1 (B16F1 mouse melanoma): > 10.00 µM
MTT ID50 Average [2]: 9.38 µM
MTT ID50 BT474 [3]: > 10.00 µM
MTT ID50 T47D [4]: 6.30 µM
MTT ID50 MG-63 [5]: > 10.00 µM

CC[C@H](C)[C@H](NC(=O)[C@H](CCCCN)NC(=O)[C@H](CCCNC(=N)N)NC(=O)[C@H](C)NC(=O)[C@H](CC(C)C)NC(=O)[C@H](CCCCN)NC(=O)[C@H](CCCCN)NC(=O)[C@H](CC(C)C)NC(=O)[C@H](CCCNC(=N)N)NC(=O)[C@H](CCCNC(=N)N)NC(=O)CNC(=O)[C@@H](NC(=O)[C@H](CCCNC(=N)N)NC(=O)[C@H](CCCCN)NC(=O)[C@@H](NC(=O)[C@H](C)NC(=O)[C@H](CCCNC(=N)N)NC(=O)[C@H](CCCCN)NC(=O)[C@H](CCCNC(=N)N)NC(=O)[C@@H](N)CCCCN)C(C)C)C(C)C)C(=O)N[C@@H](C)C(=O)N[C@@H](CCCNC(=N)N)C(=O)N[C@@H](CC(C)C)C(=O)NCC(=O)N[C@H](C(=O)N[C@@H](C)C(=O)N[C@@H](Cc1ccccc1)C(=O)N[C@@H](CCCCN)C(=O)N[C@@H](CC(=O)O)C(=O)N[C@@H](CC(C)C)C(=O)O)C(C)C [Peptide 17] (H-KRKRAVKRVGRRLKKLARKIARLGVAFKDL-OH)
MTT ID50 KBATCC [1]: 5.40 µM
MTT ID50 B16F1 (B16F1 mouse melanoma): 8.50 µM
MTT ID50 MDA231 [6]: 9.20 µM
MTT ID50 Average [2]: 6.22 µM
MTT ID50 BT474 [3]: 6.30 µM
MTT ID50 T47D [4]: 1.00 µM
MTT ID50 MG-63 [5]: 6.90 µM

CC(C)[C@H](NC(=O)[C@H](CCCCN)NC(=O)[C@H](CCCCN)NC(=O)[C@H](C)NC(=O)[C@@H](NC(=O)[C@H](CCCCN)NC(=O)[C@H](CCCCN)NC(=O)[C@H](C)NC(=O)[C@@H](NC(=O)[C@H](CCCCN)NC(=O)[C@H](C)NC(=O)[C@@H](NC(=O)[C@H](CCCCN)NC(=O)[C@H](CCCCN)NC(=O)[C@H](C)NC(=O)[C@@H](NC(=O)[C@H](CCCCN)NC(=O)[C@H](C)NC(=O)[C@@H](NC(=O)[C@H](CCCCN)NC(=O)[C@H](CCCCN)NC(=O)[C@@H](NC(=O)[C@H](Cc1ccccc1)NC(=O)[C@H](CCCCN)NC(=O)[C@H](CCCCN)NC(=O)[C@H](CCCCN)NC(=O)[C@@H](N)CCCCN)C(C)C)C(C)C)C(C)C)C(C)C)C(C)C)C(C)C)C(=O)O [Peptide 5] (H-KKKKFVKKVAKVAKKVAKVAKKVAKKV-OH)
MTT ID50 KBATCC [1]: 9.60 µM
MTT ID50 B16F1 (B16F1 mouse melanoma): > 10.00 µM
MTT ID50 MDA231 [6]: > 10.00 µM
MTT ID50 Average [2]: 9.30 µM
MTT ID50 BT474 [3]: > 10.00 µM
MTT ID50 T47D [4]: 6.20 µM
MTT ID50 MG-63 [5]: > 10.00 µM

CC[C@H](C)[C@H](NC(=O)[C@H](CCCCN)NC(=O)[C@H](CCCNC(=N)N)NC(=O)[C@H](C)NC(=O)[C@H](CC(C)C)NC(=O)[C@H](CCCCN)NC(=O)[C@H](CCCCN)NC(=O)[C@H](CC(C)C)NC(=O)[C@H](CCCNC(=N)N)NC(=O)[C@H](CCCNC(=N)N)NC(=O)CNC(=O)[C@@H](NC(=O)[C@H](CCCNC(=N)N)NC(=O)[C@H](CCCCN)NC(=O)[C@@H](NC(=O)[C@H](C)N)C(C)C)C(C)C)C(=O)N[C@@H](C)C(=O)N[C@@H](CCCNC(=N)N)C(=O)N[C@@H](CC(C)C)C(=O)NCC(=O)N[C@H](C(=O)N[C@@H](C)C(=O)N[C@@H](Cc1ccccc1)C(=O)N[C@@H](CCCCN)C(=O)N[C@@H](CC(=O)O)C(=O)N[C@@H](CC(C)C)C(=O)O)C(C)C [Peptide 18] (H-AVKRVGRRLKKLARKIARLGVAFKDL-OH)
MTT ID50 KBATCC [1]: 6.10 µM
MTT ID50 B16F1 (B16F1 mouse melanoma): > 10.00 µM
MTT ID50 MDA231 [6]: > 10.00 µM
MTT ID50 Average [2]: 8.03 µM
MTT ID50 BT474 [3]: 7.70 µM
MTT ID50 T47D [4]: 4.40 µM
MTT ID50 MG-63 [5]: > 10.00 µM

CC(C)[C@H](NC(=O)[C@H](CCCCN)NC(=O)[C@H](C)NC(=O)[C@@H](NC(=O)[C@H](CCCCN)NC(=O)[C@H](CCCCN)NC(=O)[C@H](C)NC(=O)[C@@H](NC(=O)[C@H](CCCCN)NC(=O)[C@H](C)NC(=O)[C@@H](NC(=O)[C@H](CCCCN)NC(=O)[C@H](CCCCN)NC(=O)[C@@H](NC(=O)[C@@H](N)Cc1ccccc1)C(C)C)C(C)C)C(C)C)C(C)C)C(=O)N[C@@H](C)C(=O)N[C@@H](CCCCN)C(=O)N[C@@H](CCCCN)C(=O)N[C@H](C(=O)N[C@@H](C)C(=O)N[C@@H](CCCCN)C(=O)N[C@@H](CCCCN)C(=O)N[C@H](C(=O)N[C@@H](CCCCN)C(=O)N[C@@H](CCCCN)C(=O)N[C@@H](CCCCN)C(=O)N[C@@H](CCCCN)C(=O)O)C(C)C)C(C)C [Peptide 7] (H-FVKKVAKVAKKVAKVAKKVAKKVKKKK-OH)
MTT ID50 KBATCC [1]: 6.30 µM
MTT ID50 B16F1 (B16F1 mouse melanoma): > 10.00 µM
MTT ID50 Average [2]: 8.75 µM
MTT ID50 BT474 [3]: > 10.00 µM
MTT ID50 T47D [4]: 6.20 µM
MTT ID50 MG-63 [5]: > 10.00 µM
